The values that follow come from PubChem BioAssay AID1745853 (National Center for Advancing Translational Sciences (NCATS), 2022).

Several values for one entry are separate records, joined by “and”; a condition that tells them apart may be missing. Equal entries are not always repeated. The list shows a part of the results. These are further read-outs of the screen, such as a control signal, another cell line or another target. No call is given for them. Numbered stars: 1 amine (or outer) side, 2 acyl side, 3 side chain; on linkers, the order of the positions; unused ones are H or OH. Bridge positions count the residues as written; N and C are the ends. Square brackets hold non-standard residues; d marks the D form. Peptide text beside a SMILES is read from it. * marks the point of attachment. ξ: configuration not given here. ξhTyr(3S-OH,4S-OH,3'-OSO3H) = NC(C(=O)O)[C@H](O)[C@@H](O)c1ccc(O)c(OS(=O)(=O)O)c1; Orn(4R-OH,5R-OH) = O=C([C@H](C[C@@H](O)[C@@H](O)N[*:3])N[*:1])[*:2]; X6 = CCCCCOc1ccc(-c2cc(-c3ccc(C(=O)*)cc3)no2)cc1; X7 = C[C@H]1CN([*:1])C(C(=O)[*:2])[C@H]1O; ξGln(3R-OH) = NC(=O)C[C@@H](O)C(N)C(=O)O; ξPro(4R-OH) = O=C(O)C1C[C@@H](O)CN1; ξThr(3R) = C[C@@H](O)C(N)C(=O)O

What all share (experiment): Primary Screen for Target Class Profiling of Small Molecule Inhibitors of Methyltransferases
The target in assay [1] is Glycine N-methyltransferase (Homo sapiens) (UniProt Q14749). As to conditions: purified enzyme, MTase-Glo SAH luminescence; measured here: GNMT inhibition; at 40 µM; stronger effect = lower value. The method in brief:
(§1)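 Each enzyme was reacted with SAM and its substrate, with compounds tested once at 40 uM; SAH formed was read by MTase-Glo luminescence.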

Assay [2] deals with Guanidinoacetate N-methyltransferase (Homo sapiens) (UniProt Q14353). As to conditions: purified enzyme, MTase-Glo SAH luminescence; measured here: GAMT inhibition; at 40 µM; stronger effect = lower value. The method in brief: as §1
The target in assay [3] is Histamine N-methyltransferase (Homo sapiens) (UniProt P50135). As to conditions: purified enzyme, MTase-Glo SAH luminescence; measured here: HNMT inhibition; at 40 µM; stronger effect = lower value. The method in brief:
as §1

In assay [4] the target is Nicotinamide N-methyltransferase (Homo sapiens) (UniProt P40261). As to conditions: purified enzyme, MTase-Glo SAH luminescence; measured here: NNMT inhibition; at 40 µM; stronger effect = lower value. The method in brief:
as §1

The target in assay [5] is Phenylethanolamine N-methyltransferase (Homo sapiens) (UniProt P11086). As to conditions: purified enzyme, MTase-Glo SAH luminescence; measured here: PNMT inhibition; at 40 µM; stronger effect = lower value. The method in brief:
as §1
% is scaled to controls: 0 for no effect and ±100 for the full control effect.

Consider `CCCCCOc1ccc(-c2cc(-c3ccc(C(=O)N[C@H]4C[C@@H](O)[C@@H](O)NC(=O)C5[C@@H](O)[C@@H](C)CN5C(=O)C([C@H](O)CC(N)=O)NC(=O)C([C@H](O)[C@@H](O)c5ccc(O)c(OS(=O)(=O)O)c5)NC(=O)C5C[C@@H](O)CN5C(=O)C([C@@H](C)O)NC4=O)cc3)no2)cc1` (stereo partly drawn) (X6-[Orn(4R-OH,5R-OH)][ξThr(3R)][ξPro(4R-OH)][ξhTyr(3S-OH,4S-OH,3'-OSO3H)][ξGln(3R-OH)][X7]; lactam 1-C), for which the activity change, negative = inhibition is 2.55% in assay [1]; 19.6% in assay [2]; 5.94% in assay [3]; -8.43% in assay [4]; 3.27% in assay [5].
Take `COC(=O)C1=C(C)NC(C)=C(C(=O)OC)C1c1cccc(NC(=O)NCCCN2CCC(c3cccc(OC)c3)CC2)c1`: the activity change, negative = inhibition in assay [1] is -13.9% and -19.6%; in assay [2], 5.11% and 6.37%; in assay [3], -38.5% and -50.8%; in assay [4], -15.8% and -34.8%; in assay [5], 4.78% and 2.43%.
On to `CCCn1c(=O)c2ccc(C(=O)NCC(C)C)cc2n2c(SCC(=O)Nc3cccc(C)c3)nnc12`, for which the activity change, negative = inhibition was 2.49% in assay [1]; 0% in assay [2]; 3.52% in assay [3]; -2.34% in assay [4]; 1.7% in assay [5].
In the case of `O=C(O)CCNc1cc(N2CCc3ccccc3CC2)nc(-c2ccccn2)n1`, the activity change, negative = inhibition in assay [1] was -2.06% and -5.17%; in assay [2] it was -4.94% and -12.7%; in assay [3], 0.664% and -4.07%; in assay [4], -18.1% and -19.6%; in assay [5], -4.9% and -6.73%.
On to `Cc1nn(CCO)cc1CN1CCN(C(=O)c2cc[nH]c2)CC(O)C1` (stereo not given), for which the activity change, negative = inhibition in assay [1] was -1.71%; in assay [2], -1.04%; in assay [3] it was 0.324%; in assay [4] it was -1.61%; in assay [5], -0.303%.
Taken in the same sequence, the figures for `O=C(Cn1c(=O)c2ccc(Cl)cc2n2nncc12)NCc1ccc(F)cc1` were 1.09%, 1.35%, 7.82%, 4.71% and 0.456%.
With `C=C1CCC2C(C)(C(=O)O)CCCC2(C)C1CCC1=CCOC1=O` (stereo not given), the activity change, negative = inhibition in assay [1] is 3.74%; in assay [2], 2.92%; in assay [3], 9.37%; in assay [4], -9.26%; in assay [5], 4.67%.
Consider `Cc1cc(OCCCS(C)(=O)=O)cc(C)c1-c1cccc(COc2ccc(C3=CC(=O)NS3=O)cc2)c1` (stereo not given), for which the activity change, negative = inhibition is -37.9% in assay [1]; 12.8% in assay [2]; -8.26% in assay [3]; -43.2% in assay [4]; -0.192% in assay [5].
For `CC(=O)c1c(C)cccc1O[C@@H]1O[C@H](CO)[C@@H](O)[C@H](O)[C@H]1O`, the activity change, negative = inhibition in assay [1] is -0.051%; in assay [2] it was -2.56%; in assay [3], 10.3%; in assay [4], -15.8%; in assay [5], -11.4%.
As to `COc1cccc(NC(=O)c2cc3n(n2)CC(C)(C(=O)NC2CCCCC2)N(C)C3=O)c1` (stereo not given), the activity change, negative = inhibition is 4.96% in assay [1]; 0% in assay [2]; 9.44% in assay [3]; 10.5% in assay [4]; 5.72% in assay [5].
Taken in the same sequence, the figures for `CS(=O)(=O)N1CCN2C(=O)N(C3CCCCC3)C[C@H]2C1` were -3.01%, -4.21%, -2.4%, -11.6% and -18.6%.
Taken in the same sequence, the figures for `OC1(Cn2ccnc2)CCN(Cc2ccccc2Cn2cccn2)CC1` were 0.389%, 0.433%, -55.2%, -0.042% and -1.76%.
With `Cn1c(=O)c2ccc(C(=O)NC3CCCC3)cc2n2c(=O)n(Cc3cccc(Cl)c3)nc12`, the activity change, negative = inhibition in assay [1] was 2.71%; in assay [2], 0%; in assay [3], 2.55%; in assay [4], -0.137%; in assay [5] it was 1.76%.
As to `C/C=C(/C)C(=O)OC1CC(C)(C)CC2C3=CCC4C5(C)CCC(OC6OC(C)C(OC7OC(C(=O)O)C(O)C(OC8OC(CO)C(O)C(O)C8OC8OC(CO)C(O)C(O)C8O)C7O)C(O)C6O)C(C)(C)C5CCC4(C)C3(C)C(OC(=O)/C=C/C=C/C=C/CCC)C(OC(C)=O)C12CO` (stereo not given), the activity change, negative = inhibition in assay [1] was 0%; in assay [2], -6.26%; in assay [3] it was 0.116%; in assay [4], -18.7%; in assay [5], 3.28%.
Taken in the same sequence, the figures for `CCCCN1C(=O)c2cc3ccccc3n2CC1(C)C(=O)NC1CCCCCC1` (stereo not given) were 2.35%, 1.92%, 3.21%, -5.72% and -2.76%.
As to `COc1cccc(CN2CCC[C@@H](O)[C@H](NC(=O)c3ccc(OCc4ccccc4)cc3)C2)c1`, the activity change, negative = inhibition in assay [1] was -6.81%; in assay [2], -1.62%; in assay [3], -3.88%; in assay [4], -6.25%; in assay [5], -1.28%.
For the compound `CCn1c(=O)n(CC)c2cc(S(=O)(=O)Nc3ccc(F)cc3)ccc21`, the activity change, negative = inhibition stood at 13.7% in assay [1]; 2.38% in assay [2]; 13.6% in assay [3]; 1.67% in assay [4]; 9.63% in assay [5].
Take `O=C(N[C@H](Cc1cscn1)C(=O)N[C@@H](CC1CCCCC1)[C@@H](O)[C@@H](O)C1CC1)c1nc2ccccc2[nH]1`: the activity change, negative = inhibition in assay [1] is -8.65%; in assay [2], -11.4%; in assay [3] it was -9.27%; in assay [4] it was -23.1%; in assay [5], -11%.
Take `COc1cccc(CN2CCOC[C@H](O)C2)c1`: the activity change, negative = inhibition in assay [1] is -6.83%; in assay [2], -10.3%; in assay [3] it was -1.79%; in assay [4], -20.9%; in assay [5] it was -15.8%.
Taken in the same sequence, the figures for `COc1ccccc1OCCNC(=O)C1CCN(c2cc(C(F)(F)F)nc(C)n2)CC1` were -1.66%, -5.65%, -2.66%, -5.84% and -8.61%.
Turning to `O=C(Cc1ccccc1)N1CCCC2(CC(c3cccc(C(F)(F)F)c3)=NO2)C1` (stereo not given), the activity change, negative = inhibition was -7.16% in assay [1]; -1.24% in assay [2]; -0.959% in assay [3]; -10% in assay [4]; -3.03% in assay [5].
With `COc1cc(CN2CCN(c3noc(C(C)C)n3)CC2CCO)cc(OC)c1` (stereo not given), the activity change, negative = inhibition in assay [1] is -3.62%; in assay [2] it was 0.166%; in assay [3], 1.03%; in assay [4], -26.9%; in assay [5], 4.95%.
For `COc1ccc(C(=O)NCc2cccnc2)cc1C(=O)NCc1cccnc1`, the activity change, negative = inhibition in assay [1] was 3.56%; in assay [2] it was 6.83%; in assay [3], 5.79%; in assay [4], -6.69%; in assay [5], 4.9%.
Consider `CC(C)c1cccc(C(C)C)c1N1C(=O)c2ccc(O)cc2C1=O`, for which the activity change, negative = inhibition was 1.34% in assay [1]; 5.78% in assay [2]; 3.02% in assay [3]; -5.77% in assay [4]; 5.96% in assay [5].
Taken in the same sequence, the figures for `CC1(C(=O)NCc2ccccc2)Cn2c(ccc2-c2ccco2)C(=O)N1c1ccc(Cl)cc1` (stereo not given) were -11.7%, -1.05%, 2.49%, -11.2% and -4%.
Consider `COc1ccc(CNC(=O)C2(C)Cn3cnc(C(=O)NCc4ccccc4OC)c3C(=O)N2C2CC2)cc1` (stereo not given), for which the activity change, negative = inhibition turned out to be 0.935% in assay [1]; 0.388% in assay [2]; 13.7% in assay [3]; 2.96% in assay [4]; 7.93% in assay [5].
As to `COc1ccccc1-c1cc(C(=O)N2CCOCC2)nn2cccc12`, the activity change, negative = inhibition in assay [1] is -5.05%; in assay [2], -4.72%; in assay [3], -2.83%; in assay [4] it was -8.8%; in assay [5], -3.02%.
